Reference: PubChem BioAssay AID1030 (National Center for Advancing Translational Sciences (NCATS), 2008)
Among all 220,000 compounds or so, about 16,000 (7.3%) were called active. This list was built around the results that the source calls inconclusive (neither active nor inactive); the mix of calls is not that of the screen. Calls follow the shape of the dose curve; as a rule, active = well fitted inhibition curve with a large enough effect (not every such curve was filed as active); inconclusive = small, poorly fitted or top-dose-only effect, or another doubt; inactive = no such curve, though single readings can be large or run the other way. Potencies of inconclusive entries are doubtful fits and often do not repeat.

Biological target: Aldehyde dehydrogenase 1A1 (Homo sapiens) (UniProt P00352)
Sequence of UniProt P00352 (P00352 whole entry, looked up): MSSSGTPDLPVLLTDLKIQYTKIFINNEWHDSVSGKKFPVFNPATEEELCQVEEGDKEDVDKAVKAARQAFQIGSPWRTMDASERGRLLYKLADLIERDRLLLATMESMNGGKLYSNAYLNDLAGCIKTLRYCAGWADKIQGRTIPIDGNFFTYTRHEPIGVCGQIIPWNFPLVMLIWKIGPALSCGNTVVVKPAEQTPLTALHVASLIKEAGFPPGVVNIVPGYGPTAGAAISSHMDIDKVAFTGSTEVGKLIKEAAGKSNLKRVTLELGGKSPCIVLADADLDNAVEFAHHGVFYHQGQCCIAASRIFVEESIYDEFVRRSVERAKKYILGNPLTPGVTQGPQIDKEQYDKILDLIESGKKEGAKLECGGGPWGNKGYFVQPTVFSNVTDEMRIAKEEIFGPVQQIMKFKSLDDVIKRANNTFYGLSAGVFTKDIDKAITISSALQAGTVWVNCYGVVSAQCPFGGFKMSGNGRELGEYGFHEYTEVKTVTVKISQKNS
Assay: qHTS Assay for Inhibitors of Aldehyde Dehydrogenase 1 (ALDH1A1);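 as to activity, negative = inhibition: plate controls were no enzyme wells and a reference inhibitor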
Settings: Purified ALDH1A1, NADH fluorescence, propionaldehyde substrate; series mostly up to 75.3 µM; activity, negative = inhibition: at the top concentration
Potency is read from the fitted curve at half-maximal effect; tags tell the direction and shape of the fitted curve.

Potency, inconclusive:
COc1ccc(-c2noc(C3CCCN(C(=O)Nc4ccccc4)C3)n2)cc1 (stereo not drawn) 37.7 µM [inhibitor, single point], Nc1nnc(SCC(=O)Nc2cc(S(=O)(=O)N3CCOCC3)ccc2Cl)s1 25.1 µM [inhibitor, single point], CC(=O)c1ccc(NC(=S)NC(NC(=O)c2ccco2)C(Cl)(Cl)Cl)cc1 (stereo not drawn) 31.6 µM [inhibitor, single point], C/C(=N\NC(=O)COc1ccc(C(C)(C)C)cc1)c1ccc(N2CCOCC2)cc1 28.2 µM [inhibitor, partial curve], O=C(c1ccccc1)c1nn(-c2ccccc2)c(=O)cc1C(F)(F)F 25.1 µM [inhibitor, partial curve], O=C(c1ccc(F)cc1)N(c1ccccn1)C1CCCCC1 39.8 µM [inhibitor, single point], CCC(C)NC(=O)c1ccc(C(=O)c2ccccc2)cc1 (stereo not drawn) 25.1 µM [inhibitor, single point], CC1(C)CC(=O)C(C=NCC2CCN(C(=O)Cc3ccccc3)CC2)=C(O)C1 10 µM [inhibitor, partial curve], CSC(=NC#N)N1CCN(c2cccc(Cl)c2)CC1 22.4 µM [inhibitor, partial curve], NC(CC(=O)O)c1ccc(F)cc1 (stereo not drawn) 25.1 µM [inhibitor, single point], O=C1Nc2cc(C(=O)N3CCc4ccccc4C3)ccc2S/C1=C\c1ccccc1 44.7 µM [inhibitor, single point], CSc1ccc(/C=C/C(=O)NC23CC4CC(CC(C4)C2)C3)cc1 28.2 µM [inhibitor, partial curve], NS(=O)(=O)c1cccc(NC(=O)COC(=O)/C=C/c2ccco2)c1 39.8 µM [inhibitor, single point], COc1ccc(C(=O)Nn2cc3c(c2-c2ccccc2)c(=O)n(C)c(=O)n3C)cc1 25.1 µM [inhibitor, single point], Cc1ccc(S(=O)(=O)Nc2ccccc2CNc2ccccn2)cc1 25.1 µM [inhibitor, partial curve], O=C(NC1=NCCS1)c1cccc(S(=O)(=O)N2CCc3ccccc32)c1 22.4 µM [inhibitor, partial curve], O=S(=O)(Cc1ccccc1)N1CCC(N2CCN(c3ccccc3)CC2)CC1 39.8 µM [inhibitor, single point], NC(N)=N/N=C/c1cc([N+](=O)[O-])ccc1O 28.2 µM [inhibitor, single point], O=C1C2C3CCC(C3)C2C(=O)N1CNc1ccccc1 (stereo not drawn) 39.8 µM [inhibitor, single point], CCN1CCCC1CNC(=O)c1cc2c(-c3ccc(Cl)cc3)nn(C)c2s1 (stereo not drawn) 25.1 µM [inhibitor, partial curve], CCN(CC)c1ccc2c(C)c(CN3CCOCC3)c(=O)oc2c1 35.5 µM [inhibitor, partial curve], O=C(/C=C/c1ccco1)Nc1ccc(C(=O)N2CCOCC2)cc1 31.6 µM [inhibitor, single point], COc1ccccc1NCc1nnc(SCC(=O)N/N=C/c2ccco2)n1-c1ccc(Cl)cc1Cl 44.7 µM [inhibitor, single point], N#Cc1nc(-c2cccc3ccccc23)oc1N1CCCCC1 7.08 µM [inhibitor, full curve], Cc1ccccc1-c1nc(-c2ccc(NC(=O)c3cccs3)cc2)no1 39.8 µM [inhibitor, single point], CCCCOc1ccc(CC(=O)NCC(=O)O)cc1 3.55 µM [inhibitor, partial curve, poor fit], CCN(CC)S(=O)(=O)c1ccc(-c2nnc(SC)o2)cc1 39.8 µM [inhibitor, single point], COc1ccc(CCNC[C@@H](O)c2ccc(O)cc2)cc1OC 35.5 µM [inhibitor, single point], CCSc1nc2sc3c(c2c(=O)n1-c1ccc(OC)cc1)CCN(C)C3 14.1 µM [inhibitor, partial curve]

Potency, active:
S=c1[nH]nc(Nc2cccc(Cl)c2)s1 2.51 µM, N#CC1=C2SCCN2C(=O)C(C#N)C12CCCCC2 (stereo not drawn) 0.562 µM, CN(C)/C=C1/C(=O)N(c2ccc([N+](=O)[O-])cc2)N=C1c1ccccc1 15.8 µM, COc1ccc(C(=O)CNc2ccccc2CO)cc1 14.1 µM, O=C(CC1CCCCC1)Nc1c2c(nn1-c1ccc(F)cc1)CS(=O)(=O)C2 7.94 µM, CCOC(=O)C1=C(C)N=c2s/c(=C/c3ccco3)c(=O)n2C1c1cccc(OC)c1 (stereo not drawn) 3.55 µM

Potency, inactive:
COC(C)(C)CCCC(C)C/C=C/C(C)=C/C(=O)O (stereo not drawn)

activity, negative = inhibition, inactive:
CC(C)NC(=O)NC(=O)COC(=O)C1(C)CC1(Cl)Cl (stereo not drawn) 7.86%, COC(=O)CSc1nccc(C)n1 6.96%, CCCCC(=O)NC(=S)Nc1cccc(NC(=O)CC)c1 -0.593%, O=C1C2CCCN2C(c2ccco2)N1c1ccc(F)cc1 (stereo not drawn) 3.44%, Cc1cc(C)cc(NC(=O)Cn2ncn3c(cc4ccccc43)c2=O)c1 -12.5%, O=S(=O)(CCc1ccccc1)c1nc2ccccc2s1 -4.7%, O=C(c1ccc(-n2cccc2)cc1)N1CCOCC1 11%, CC1Cc2ccccc2N1C(=O)CSc1ncccc1C(=O)O (stereo not drawn) -3.34%, c1ccc([C@H](CCN2CCCC2)c2ccccn2)cc1 21.8% [at 13.5 µM], CC1=NN(C(=O)COc2ccccc2C)C(O)(c2ccc(Cl)cc2)C1 (stereo not drawn) 7.77%, Cc1nc([N+](=O)[O-])c(Br)n1CC(=O)c1ccc(F)cc1 -3.07%, CNc1nc(SC)nc(N(C)C#N)n1 2.55%
